Measurements from PubChem BioAssay AID1508642 (National Center for Advancing Translational Sciences (NCATS), 2021).
In all, about 43,000 compounds went through this assay and about 200 (0.47%) were called active. Not shown: some 12% with an inconclusive outcome. Calls follow the shape of the dose curve; as a rule, active = well fitted cell-killing curve with a large enough effect; inconclusive = small, poorly fitted or top-dose-only effect, or effect the other way; inactive = flat fitted curve, though single readings scatter. The list shows a part of the results.

Experiment: Cell viability qHTS assay in S16 Pmp22-F2sN cells; also: nearly all actives have a fitted effect of over 65% in size
Conditions: S16 Pmp22-F2sN Schwann cells viability, CellTiter-Glo, 24 h; series mostly up to 57.5 µM; activity change, negative = cytotoxicity: at the top concentration
How it was run: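 Viability was measured by CellTiter-Glo luminescence (15 min, room temperature). This followed 24 h at 37 °C of compound exposure (23 nL pin transfer) in S16 Pmp22-F2sN Schwann cells, 500-1,000 per well.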
% is scaled to controls: 0 for no effect and ±100 for the full control effect; potency is read from the fitted curve at half-maximal effect.

Row | Compound | activity change, negative = cytotoxicity | Potency
1 | CCOc1ccc(N(CC)S(=O)(=O)N2CCCC(C(=O)NCc3ccccc3OCC)C2)cc1 (configuration not stated) | inactive: -6.81% | –
2 | COc1cc(-c2cc3n(C)c(C)c(CCC(=O)NC4CCC(C)CC4)c(=O)n3n2)cc(OC)c1OC (configuration not stated) | inactive: -7.07% | –
3 | CCOc1ccc(CCNc2ncnc3onc(C)c23)cc1OCC | inactive: -24.5% | –
4 | COc1ccc(CCNC(=O)CCCCn2c(=O)c3ccccc3n(Cc3cccc(C)c3)c2=O)cc1OC | inactive: -1.32% | –
5 | CCOC(=O)c1cnc2c(OC)cccc2c1N1CCN(c2ccccc2F)CC1 | inactive: -26.8% | –
6 | COc1ccc(CNC(=O)c2ccc(-c3nc(CSc4ccccc4)c(C)o3)cc2)cc1 | inactive: 12.4% | –
7 | COc1ccc(C(=O)Nc2ccc3c(c2)CCCN3S(=O)(=O)c2ccc(C)cc2)cc1 | inactive: 4.85% | –
8 | CCCCN(CCCC)CCn1cnc2c([nH]c3ccc(OC)cc32)c1=O | inactive: -1.72% | –
9 | COc1ccc(NC(=O)c2oc3ccccc3c2NC(=O)c2cc(=O)c3ccccc3o2)cc1 | inactive: -13.7% | –
10 | CCn1cc(C(=O)N2CCN(c3ccccc3OC)CC2)c2cc(OC)c(OC)cc2c1=O | inactive: -2.25% | –
11 | CCC(Oc1ccccc1)C(=O)Nc1nnc(S(=O)(=O)N2CCCC2)s1 (configuration not stated) | inactive: -1.4% | –
12 | CCc1ccc(OCC(=O)Nc2c(C(=O)c3ccc(Br)cc3)oc3ccccc23)cc1 | inactive: 1.29% | –
13 | CCOc1cccc2sc(=NC(=O)c3ccc(S(=O)(=O)N4CCOCC4)cc3)n(C)c12 | inactive: 2.25% | –
14 | CCc1ccc(NC(=O)c2ccc(CNS(=O)(=O)c3ccc4c(c3)C(C)(C)C(=O)N4C)cc2)cc1 | inactive: -2.96% | –
15 | COc1cc(CNCCSc2nnnn2C)ccc1OCc1ccccc1 | inactive: 6.15% | –
16 | COc1ccc(N2CCN(C(=O)c3c(C)oc4ncn(CC(C)C)c(=O)c34)CC2)cc1 | inactive: 4.17% | –
17 | COC(=O)c1ccc(NC(=O)C(C)N2Cc3ccccc3C2=O)cc1 (configuration not stated) | inactive: 3.15% | –
18 | Cc1ccc2nc3sc(C(=O)Nc4ccc(F)cc4)cc3cc2c1 | inactive: 2.16% | –
19 | CN(C(=O)CSc1nc2ccc(NC(=O)c3ccco3)cc2s1)c1ccccc1 | inactive: -19.8% | –
20 | CCc1ccccc1NC(=O)c1nnn(CC(=O)Nc2c(C)cc(C)cc2C)c1N | inactive: 0.785% | –
21 | Cc1cc(C)c2c(NC(=O)c3ccccc3Cl)c(C(=O)Nc3ccc(C)c(C)c3)sc2n1 | inactive: 0.834% | –
22 | Cc1ccc(CNC(=O)c2cnc(N3CCCC3)nc2C)cc1 | inactive: 0.68% | –
23 | Cc1ccc(N2CCN(S(=O)(=O)c3nnc(NC(=O)c4cccc(F)c4)s3)CC2)cc1 | inactive: 1.79% | –
24 | CCc1ccc(NC(=O)C2CCN(c3ccc(Sc4ccc(C)cc4)nn3)CC2)cc1 | inactive: 1.77% | –
25 | COc1ccc(CCNC(=O)Cn2c(=O)cc(C(F)(F)F)c3c(C)nn(C)c32)c(OC)c1 | inactive: 8.04% | –

Row | Compound | activity change, negative = cytotoxicity | Potency
26 | CCOc1cc(CNC(=O)c2cc(-c3ccc(Cl)s3)nc3ccccc23)ccc1OC | inactive: 13.3% | –
27 | COc1ccc(NC(=O)CNC(=O)Cn2ccc3ccccc3c2=O)c(OC)c1 | inactive: 3.06% | –
28 | O=C(Cn1cccc1C(=O)c1ccccc1)NCc1ccc(Cl)cc1 | inactive: 13.7% | –
29 | Cc1ccc(N2CC(C(=O)NCCS(=O)(=O)N3CCN(c4ccc(F)cc4)CC3)CC2=O)cc1 (configuration not stated) | inactive: -2.28% | –
30 | O=C(CCSCc1cccc(F)c1)NCCc1ccccc1 | inactive: 0.0549% | –
31 | O=C(CCSCCc1ccccn1)Nc1ccccc1C(F)(F)F | inactive: 5.01% | –
32 | CCc1ccccc1NC(=O)Cn1cc(C(=O)c2ccncc2)c(=O)c2cc(C)ccc21 | inactive: 5.15% | –
33 | COc1ccc(CCNC(=O)c2cc(-c3ccc(C)cc3)nc3n[nH]c(-c4ccc(F)cc4)c23)cc1OC | inactive: -14.4% | –
34 | Cc1ccc(-n2ncc3c(NCCc4ccccc4)ncnc32)cc1Cl | inactive: 2.22% | –
35 | O=C(COCc1cc(-c2ccc(F)cc2)on1)Nc1cc(Cl)cc(Cl)c1 | inactive: 19.6% | –
36 | COc1cccc(Cn2c(=O)n(-c3cc(C)cc(C)c3)c(=O)c3oc4ccccc4c32)c1 | inactive: -4.06% | –
37 | Cc1ccc2c(=O)c(C(=O)c3cccc(Cl)c3)cn(CC(=O)NCc3ccccc3)c2n1 | – | active: 10 µM
38 | CCC(CC)C(=O)Nc1cccc(-c2cn3cccnc3n2)c1 | inactive: 2.17% | –
39 | Cc1c(Cl)cccc1-c1ccc(C(=O)Nc2ccc3oc(-c4cccnc4)nc3c2)o1 | inactive: -1.21% | –
40 | COCCCNc1oc(-c2ccc(COc3ccccc3C)o2)nc1C#N | inactive: -15.7% | –
41 | COc1cc(OC)c(NC(=O)Cn2c(=O)nc(-c3ccccc3)c3ccccc32)cc1Cl | inactive: 14.2% | –
42 | CC1=C(C(=O)Nc2cccc(F)c2)C2(CCCCCC2)OC1=O | inactive: -15.2% | –
43 | COc1ccc(OC)c(NC(=O)C(Cc2ccccc2)NS(=O)(=O)c2ccc3c(c2)CCC(=O)N3)c1 (configuration not stated) | inactive: -3.28% | –
44 | CCC(=O)N1c2ccccc2CC1C(=O)NCCCN1CCN(c2ccc(F)cc2)CC1 (configuration not stated) | inactive: 15.2% | –
45 | Cc1cccc(C(=O)n2nc(-c3ccco3)nc2NCc2ccccc2)c1 | inactive: 1.33% | –
46 | COc1ccc(NC(=O)C(=O)Nc2ccc3nc4n(c(=O)c3c2)CCCCC4)c(OC)c1 | inactive: 8.94% | –
47 | CCN(CC)S(=O)(=O)c1ccc2c(c1)N(CC(=O)Nc1cccc(C(C)=O)c1)C(=O)CO2 | inactive: 19.9% | –
48 | O=C(Nc1ccc(Br)cc1)Nc1nc2c(s1)CCCCCC2 | inactive: 12.2% | –
49 | O=C(COCc1cc(-c2ccc3c(c2)OCO3)on1)Nc1cccc(O)c1 | inactive: 6.29% | –
50 | COc1cc(OC)c(NC(=O)c2nn(C)c3c2COc2ccccc2-3)cc1Cl | inactive: -4.58% | –

Row | Compound | activity change, negative = cytotoxicity | Potency
51 | Cc1ccccc1NC(=O)Cn1nnc(C(=O)NCc2ccco2)c1N | inactive: -12.5% | –
52 | CCOC(=O)c1cnc2cc(Cl)c(OC)cc2c1Nc1ccc(Br)cc1C | inactive: 1.67% | –
53 | COc1ccccc1N1CCN(C(=O)C2CCN(S(=O)(=O)c3cccs3)CC2)CC1 | inactive: -0.331% | –
54 | COc1ccccc1C(=O)NC1(C(F)(F)F)C(=O)NC(C)=C1C#N (configuration not stated) | inactive: 10.6% | –
55 | O=C(CSc1c2c(nc3ccc(Cl)cc13)CCCC2)N1CCN(c2ccc(Cl)cc2)CC1 | inactive: -1.66% | –
56 | CCOc1ccc(OC(=O)c2sc3ncn(Cc4cccc(F)c4)c(=O)c3c2C)cc1 | inactive: 3.92% | –
57 | CSc1ccc(CCNS(=O)(=O)c2cc(-c3cc(C)no3)ccc2C)cc1 | inactive: -1.63% | –
58 | COc1ccc(Cn2nc3n(c2=O)-c2ccccc2OC3)cc1 | inactive: 1.92% | –
59 | Cc1cccc(C(=O)Nc2nnc(S(=O)(=O)N3CCOCC3)s2)c1 | inactive: -12.1% | –
60 | O=C(Nc1ccccc1)c1cc2c(-c3ccccc3)nn(-c3ccccc3)c2s1 | inactive: -16.3% | –
61 | COc1ccccc1C(=O)Nc1nnc(S(=O)(=O)N2CCCCC2)s1 | inactive: 2.81% | –
62 | COc1ccc(Cl)cc1NC(=O)c1c(NCc2cccnc2)sc2c1CCCC2 | inactive: -0.848% | –
63 | Cc1ccccc1NC(=O)Cn1c(=O)n(Cc2ccco2)c(=O)c2ccc(C(=O)NC3CCCC3)cc21 | inactive: 7.6% | –
64 | Cc1cc(-c2ccccc2)nc2cc(C(=O)Nc3ccc(Cl)c(Cl)c3)nn12 | inactive: -4.85% | –
65 | COc1ccccc1NC(=O)CSc1ncc(CO)n1Cc1ccc(F)cc1 | inactive: -16.4% | –
66 | COc1ccc2ncc3c(-c4ccccc4)nn(-c4ccc(C)c(C)c4)c3c2c1 | inactive: 12.2% | –
67 | CC(C)c1cnc2c(c1SCC(=O)c1ccc(Cl)cc1)c(=O)n(C)c(=O)n2C | inactive: -20.9% | –
68 | CC1CN(C(=O)Nc2ccc(C(=O)NCCc3ccc(Cl)cc3)cc2)c2ccccc2S1 (configuration not stated) | inactive: -7.24% | –
69 | COCCn1c(C)cc(O)c(C(c2ccc(OC)cc2)N2CCCCC2)c1=O (configuration not stated) | inactive: 2.76% | –
70 | CCOc1ccc(NCc2cccn2-c2nnc(N3CCC(C(=O)NCCc4ccc(OCC)c(OCC)c4)CC3)s2)cc1 | inactive: -21.6% | –
71 | CCCC(=O)Nc1ccc2nc(SCCOc3ccccc3)sc2c1 | inactive: 3.81% | –
72 | CCCN1Cc2cccc(C(=O)Nc3ccccc3F)c2C1=O | inactive: -3.41% | –
73 | Cc1cccc(NC(=O)C(=O)NCC(c2cccnc2)N2CCN(Cc3ccccc3)CC2)c1 (configuration not stated) | inactive: -15% | –
74 | Cn1c(C(=O)NCCc2ccccc2)cc2cc(S(=O)(=O)N3CCCCC3)ccc21 | inactive: -15.3% | –
75 | Cc1ccccc1NC(=O)CSCn1nnc2c(=O)[nH]c(Cc3ccc(F)cc3)nc21 | inactive: -2.21% | –

Row | Compound | activity change, negative = cytotoxicity | Potency
76 | COc1ccc(N2CCN(C(=O)Nc3ccc(Cl)cc3)CC2)cc1 | inactive: -1.83% | –
77 | CCc1cccc(-n2nnc(-c3nc(-c4ccc5c(c4)OCO5)no3)c2C)c1 | inactive: -11.9% | –
78 | Cc1cccc(C(=O)NCc2nnc(SCC(=O)Nc3ccccc3F)n2-c2ccccc2)c1 | inactive: 13.9% | –
79 | COc1ccc(NC(=O)CSc2nc(-c3ccccc3)c3ccccc3n2)cc1 | inactive: 0.464% | –
80 | Brc1ccc(-c2csc(-c3nc(-c4ccc(Br)s4)cs3)n2)cc1 | inactive: 0.848% | –
81 | CCOc1ccc(N(CC(=O)NCc2ccc(C)cc2)S(=O)(=O)c2c(C)[nH]c(=O)[nH]c2=O)cc1 | inactive: 9.94% | –
82 | O=C(Nc1ccccc1C(F)(F)F)N1Cc2ccccc2Oc2ncccc21 | inactive: -3.48% | –
83 | CC(NC(=O)c1ccc(Cn2c(SCc3ccccc3)nc3cccnc32)cc1)c1ccccc1 (configuration not stated) | inactive: -20.6% | –
84 | COc1ccc(CN(C(=O)c2ccc(OCC(C)C)cc2)C2CCS(=O)(=O)C2)cc1 (configuration not stated) | inactive: -2.79% | –
85 | CC(CCc1ccccc1)NC(=O)Cn1ncc2c3ccccc3n(Cc3cccc(Cl)c3)c2c1=O (configuration not stated) | inactive: 2.71% | –
86 | CCN1CCN(C(c2cccc(OC)c2)c2c(O)cc(C)n(Cc3ccco3)c2=O)CC1 (configuration not stated) | inactive: 15.1% | –
87 | CCc1ccc(NC(=O)c2sc3nc(-c4ccccc4)cn3c2C)cc1 | inactive: -8.92% | –
88 | CCN(CC)CCNC(=O)Cn1cnc2sc(C)c(S(=O)(=O)N3CCN(c4ccccc4OC)CC3)c2c1=O | inactive: 7.44% | –
89 | Cc1ccc(NC(=O)Nc2csc3c2CCCC3)c(C)c1 | inactive: 1.72% | –
90 | COc1cccc(NC(=O)CN2C(=O)COc3ccc(S(=O)(=O)N4CCOCC4)cc32)c1 | inactive: 5.26% | –
91 | CN(c1nnc(NC(=O)Nc2ccc(Br)cc2)s1)C1CCCCC1 | inactive: 2.1% | –
92 | COc1ccccc1CNc1ncnc2onc(-c3ccc(Cl)cc3)c12 | inactive: 15.1% | –
93 | NC(=O)C1CCN(C(=O)c2ccccc2NC(=O)c2nsc3ccccc23)CC1 | inactive: -1.31% | –
94 | CCOC(=O)c1c(NC(=O)c2cc(=O)c3c(C)cc(C)cc3o2)sc(C)c1C | inactive: 0.906% | –
95 | Cc1cc(C(=O)Nc2ccc(Cl)cc2)c2c(C)nn(-c3ccccc3)c2n1 | inactive: 5.37% | –
96 | O=C(NCCn1cc(SCc2ccc(C(F)(F)F)cc2)c2ccccc21)c1cccs1 | inactive: 4.83% | –
97 | Cc1ccc2nc(-c3ccc(N4CCOCC4)cc3)c(Nc3ccccc3C)n2c1 | inactive: -17.5% | –
